Results as given in paper PMC9574860, “Chemical Toolkit for PARK7: Potent, Selective, and High-Throughput” (Journal of Medicinal Chemistry, 2022).
In all, about 7,900 compounds went through this assay and about 400 (5.1%) showed an effect of 50% or more. The list shows a part of the results.

The molecules below were run against Parkinson's disease protein 7 (PARK7/DJ1) (human, UniProt Q99497) (assay: primary screen, percent inhibition; read as competition with a fluorescent probe by fluorescence polarization; higher = more effect of the substance). Details: 100 µM.
Summary of the method: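 Fluorescence-polarization probe displacement (JYQ-107, 20 nM final, 2 h) after 2 h preincubation of PARK7 (0.2 μM final) with each fragment at 100 μM final. Read-out ex/em 480/520 nm; remaining activity derived from FP signal loss relative to reference controls.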

Chain of Parkinson's disease protein 7 (PARK7/DJ1) (Q99497 whole entry, looked up, the tested form may be a part): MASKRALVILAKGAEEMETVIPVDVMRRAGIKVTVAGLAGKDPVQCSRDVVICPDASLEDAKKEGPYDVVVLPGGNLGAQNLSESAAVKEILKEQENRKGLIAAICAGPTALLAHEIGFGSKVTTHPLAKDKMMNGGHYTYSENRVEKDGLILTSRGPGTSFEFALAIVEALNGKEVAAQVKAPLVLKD

Compound | Inhibition %
CC1(C)OB(c2ccnc(F)c2)OC1(C)C | 2.29%
CC(C)C1NC(=O)C1C(C)C (stereo not drawn) | 1.77%
C=CC(=O)N1CCN(Cc2cc(Cl)ccc2OC)CC1 | 6.99%
C=CC(=O)Nc1cccc(N2CCOCC2)c1 | 11.1%
CCNC(=O)c1ccc2c(=O)n(C)c(S)nc2c1 | 4.44%
C=CC(=O)N1CCCN(Cc2ccc(F)cc2)CC1 | 7.34%
C=CC(=O)NC1C(C)CCCC1C (stereo not drawn) | 4.93%
O=C(CCl)NCc1cc(F)cc(F)c1 | 3.54%
N#CC=C1C(=O)Nc2ccccc21 | 24.9%
C=CC(=O)N1CCN(c2ncccn2)CC1 | 9.58%
CNS(=O)(=O)C=Cc1ccc(Cl)cc1 | -0.344%
NS(=O)(=O)c1ccc(CNC(=O)CCl)cc1 | 1.02%
CCC(C)(C)C1CCC(NC(=O)CCl)CC1 (stereo not drawn) | 30.7%
N#CCCN(C(=O)CCl)c1ccc(F)cc1 | 9.41%
C=CC(=O)N1CCCCC1COC(=O)N1CCC(C)CC1 (stereo not drawn) | 12%
CN(C)C(=O)c1ccc(B2OC(C)(C)C(C)(C)O2)c(Cl)c1 | 2.75%
CN(CC(=O)Nc1cccc(Cl)c1)C(=O)CCl | 93.8%
O=C(CC1C=CS(=O)(=O)C1)NCc1ccccc1Cl (stereo not drawn) | 11.4%
CC(C)Cc1nc(C#N)c(NCc2cccnc2)o1 | 7.87%
O=C1COc2ccc(C(=O)CCl)cc2N1 | 8.16%
C=CC(=O)N1CCOC2(CCCCCC2)C1 | 11.5%
C=CC(=O)NC(=O)Nc1ccccc1 | 2.77%
N#Cc1ncn(CCC(=O)N2CCc3ccccc32)n1 | 9.27%
O=C1NC(=O)C(CS)N1 (stereo not drawn) | 84.8%
N#Cc1ccc(NS(=O)(=O)C=Cc2ccccc2)cc1 | 10.5%

Compound | Inhibition %
COc1ccc(C=C(C#N)C(N)=O)cc1 | 7.92%
O=C(CCl)NCCOc1ccc(F)cc1 | 12.3%
Cc1c(C=C2COc3ccccc3C2=O)cc(C#N)n1C | 1.53%
O=C(CCl)Nc1ccc2ccccc2c1 | 55.8%
CC1(C)OB(c2ccc(C3(N)CCCC3)cc2)OC1(C)C.Cl | 2.49%
N#CN(CC(=O)NC1CC1)c1ccc(F)c(Cl)c1 | 5.92%
C=CC(=O)N1CCC(c2nc(C3CC3)no2)(C(F)(F)F)C1 (stereo not drawn) | 4%
Cc1noc(C)c1S(=O)(=O)Oc1ccc(F)cc1Cl | 7.55%
O=C1OCCC1N1CCCN(C(=O)CC2CCCC2)CC1 (stereo not drawn) | 17.6%
C=CC(=O)N1CCC(OCc2ccc(F)cc2)CC1 | 8.91%
CC(C)NC(=O)CN(C)c1ccc(Cl)c(C#N)n1 | 0.332%
Cc1ccc(NC(=O)CCl)c(Br)c1 | 2.41%
COc1ccc(CNC(=O)CCl)cc1C(=O)O | 21.9%
C=CC(=O)N1CCC(Cc2ncc(C(=O)O)s2)CC1 | 12.7%
CCOC(=O)C1CCCCN1C(=O)CCl (stereo not drawn) | 14.2%
CC(C)NC(=O)C(C#N)=Cc1ccnc(O)c1 | 2.32%
CC1(C)OB(c2cnc(C3CC3)cc2C#N)OC1(C)C.Cl | 5.51%
C=CC(=O)N1CCOC(c2ccc(F)c(C)c2)C1 (stereo not drawn) | 4.78%
C=CC(=O)N[C@@H]1CCC[C@H]1OC(F)F | 15.7%
C=CC(=O)N1CCOCC1c1c(C)nn(C)c1C (stereo not drawn) | 12.6%
CC(C)c1ccc(NC(=O)Cn2cnc(C#N)n2)cc1 | 22.6%
CC(c1ccc(F)cc1)N(C)C(=O)Cn1cnc(C#N)n1 (stereo not drawn) | 11.3%
Cl.O=C(CCl)Nc1ccccn1 | 14.1%
CN(CCS(=O)(=O)F)S(=O)(=O)c1cccs1 | 22.7%
O=C(CCl)Nc1ccc(Cl)cc1Cl | 18%

Compound | Inhibition %
Cc1ccnc(NS(=O)(=O)c2ccc(S(=O)(=O)F)cc2)n1 | 36.3%
CC1CC1C(=O)N1CCCC(CS(=O)(=O)F)C1 (stereo not drawn) | 71.5%
O=C(CCl)NCc1ccccc1OC1CCCC1 | 29.8%
COC(Cc1ccccc1F)OC | 7.12%
O=C(c1ccc(S)nc1)N1CCCC1 | 40.7%
CC1(C)OB(c2ccc(C(F)(F)F)c(Cl)c2)OC1(C)C | 7.89%
CC1(C)OB(c2ccc3nscc3c2)OC1(C)C | 21.3%
O=C(C=Cc1nc2ccccc2o1)N1CCCCCC1 | 19.2%
Cc1csc(C2CCN(C(=O)C3CSC(=O)N3)CC2)n1 (stereo not drawn) | 6.86%
CCc1cc(N)nc(S)n1 | 14.3%
O=C(CCN1C(=O)CCC1=O)Nc1cc(F)cc(F)c1 | 5.96%
Cc1ccsc1C=C(C#N)C(N)=S | 3.4%
C=CC(=O)Nc1nc(-c2ccc3c(c2)OCO3)cs1 | 5.39%
C=CC(=O)N[C@@H](C)C1CCCC(C)C1 (stereo partly drawn) | 22.6%
O=C1NCCCc2nn(CCS(=O)(=O)F)cc21 | 15.5%
NC(=O)C1CCCN(S(=O)(=O)C=Cc2ccccc2)C1 (stereo not drawn) | 6.58%
O=C1OCCC1N1CCN(c2ccc(O)cc2)CC1 (stereo not drawn) | 28.7%
Cc1cccc(Nc2nccnc2C#N)c1 | 7.87%
O=C(Oc1ccccc1)N1CCN(CCCO)CC1 | 6.21%
C=CC(=O)N1CC(C)(C(N)=O)C1 | 14.2%
CCOc1ccc(S(=O)(=O)n2ccnc2)cc1C | 11.6%
Cl.Cl.O=C(O)C1CCN(C(=O)C=Cc2nc3ccccc3s2)C1 (stereo not drawn) | 9.53%
Cc1cc(N)nc(S)n1 | 13.7%
O=S(=O)(F)c1cccnc1 | 17.7%
CCS(=O)(=O)c1ccc(NC(=O)CCl)c(O)c1 | 7.84%

Compound | Inhibition %
CC1(C)OB(c2ccnc3ccccc23)OC1(C)C | 7.25%
C=CC(=O)N1CCN(CCOC)C(=O)C1 | 13.8%
COc1ccc(B(O)O)cc1CN(C)C.Cl | 8.9%
C=CC(=O)Nc1ccc2c(c1)OCO2 | 16%
C=CC(=O)NC1CCN(C2CC2)CC1 | 10%
C=CC(=O)NCCc1ccnn1C | 5.79%
C=CC(=O)Nc1ccccc1F | 11.3%
C=CC(=O)N1CCC(NC(=O)c2ccccc2)CC1 | 4.46%
CCCNS(=O)(=O)C=Cc1ccccc1 | 5.36%
COc1cc(B2OC(C)(C)C(C)(C)O2)ccc1O | 12.8%
CC1(C)OB(CC2CCCNC2)OC1(C)C.Cl (stereo not drawn) | 10.4%
N#Cc1ccc(C(=O)N[C@@H]2C[C@@H](O)C23CCOCC3)[nH]1 | 8.8%
C=CC(=O)N1CCSC2(CCCCC2)C1 | 5.08%
C#CC(C)(C)N(C)S(=O)(=O)c1cccnc1C#N | 8.71%
Cc1csc(N2CCCN(C3CCOC3=O)CC2)n1 (stereo not drawn) | 4.3%
CCN(C(=O)CC1C=CS(=O)(=O)C1)c1ccccc1C (stereo not drawn) | 4.03%
Cl.Cl.O=C(O)C1CCN(C(=O)C=Cc2cncc(F)c2)C1 (stereo not drawn) | 8.2%
C=CC(=O)N1CCC(C2CCCCO2)CC1 (stereo not drawn) | 11.7%
O=C(Nc1ccccc1F)N1CCC(C2OCCO2)CC1 | 5.67%
Cl.O=C(CCl)NCCN1CCc2ccccc21 | 18.9%
N#Cc1c(-c2ccccc2)nc(S)[nH]c1=O | 13.2%
N#Cc1ncn(CC(=O)NCc2ccc(Cl)cc2)n1 | 2.75%
CC1(C)OB(c2cc(F)cc(F)c2Br)OC1(C)C | 3.76%
Cc1cccc(NC(=O)CCl)c1 | 8.99%
C=CC(=O)N1CCCc2c1nc[nH]c2=O | 20.2%

Compound | Inhibition %
ClCC1CN(Cc2ccccc2)CCCO1 (stereo not drawn) | 2.58%
Cc1ccc(C=CS(=O)(=O)N2CCOCC2C#N)cc1 (stereo not drawn) | 2.61%
C=CC(=O)Nc1cccc(C(=O)NC2CC2)c1 | 11.9%
COC(Cc1ccc(F)cc1)OC | 13.8%
O=C1OCCC1Oc1ncnc2ccccc12 (stereo not drawn) | 4.34%
COc1ccc(-c2ccncc2)cc1B(O)O | 6.7%
C=CC(=O)NC(C)c1nnnn1C1CC1 (stereo not drawn) | 5.13%
O=C(CC1SC(=O)NC1=O)Nc1ccc(Cl)cc1 (stereo not drawn) | 95.7%
Cc1ccc(S(=O)(=O)N2CCN(C(=O)CCl)CC2)cc1 | 11.5%
O=S(=O)(F)c1ccc(C(F)(F)F)cn1 | 6.36%
C=CC(=O)N1CCCC(S(=O)(=O)N(C)C)C1 (stereo not drawn) | 8.23%
C=CC(=O)N1CC(Oc2nccs2)C1 | 6.56%
Cn1cc(C=C2N=C(c3ccc(F)c(F)c3)OC2=O)cn1 | 9.66%
CC(=O)Nc1cccc2c1CCN(C1CC(C)OC1=O)C2 (stereo not drawn) | 1.86%
CCc1nccn1S(=O)(=O)c1cc(Cl)c(C)cc1OC | 4.53%
COCCCn1c(S)nc2cc(Cl)ccc2c1=O | 6.34%
N#Cc1cccc(N2C[C@H](F)C[C@H]2C(N)=O)n1 | 10.3%
OB(O)c1ccc2c(c1F)OCO2 | 1.39%
Cc1onc(-c2ccccc2)c1B1OC(C)(C)C(C)(C)O1 | 4.99%
O=C1SCCN1CC(=O)N1CCCc2ccccc21 | 7.03%
O=C(CCl)c1ccc(F)c(C(=O)CCl)c1 | 100%
O=C(C=Cc1nc2ccccc2s1)N1CCCC1 | 6.38%
O=C(CCl)Nc1ccc(C(=O)O)cc1 | 25.9%
